{
  "source": "the supplement of paper PMC8728848",
  "binders": {"B1": {"name": "Jacalin (Artocarpus integrifolia) (protein)", "chain": "MAYSSLLSLSVLALLFSISSADTRKWFLANGINQNPIGIIEAAVGVSEDLLNLNGMEAKNDEQSGISQTVIVGPWGAKVSTSSNGKAFDDGAFTGIREINLSYNKETAIGDFQVVYDLNGSPYVGQNHKSFITGFTPVKISLDFPSEYIMEVSGYTGNVSGYVVVRSLTFKTNKKTYGPYGVTSGTPFNLPIENGLIVGFKGSIGYWLDYFSMYLSL"}},
  "test_in_all_cases": "glycan array binding signal (z-score within array); higher = stronger binding",
  "conditions_in_all_cases": "glycan notation: IUPAC condensed, linker removed",
  "key": {"[1]": {"biological_target": "Gal(b1-4)GlcNAc(b1-6)GalNAc", "summary_of_the_method": "(§1)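 Negative Z-scores can be read as non-binding. The Z-score is calculated within each array and then averaged across arrays of one protein sequence at different concentrations or buffers and across linkers. Arrays, 3228 in all, were curated from the Consortium for Functional Glycomics database and kept only where the protein sequence was available.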"}, "[2]": {"biological_target": "Gal(b1-4)GlcNAc(b1-6)[Gal(b1-3)]GalNAc", "summary_of_the_method": "as §1"}, "[3]": {"biological_target": "Gal(b1-4)GlcNAc(b1-6)[Gal(b1-4)GlcNAc(b1-3)]GalNAc", "summary_of_the_method": "as §1"}, "Gal(b1-4)GlcNAc6P": {"biological_target": "Gal(b1-4)GlcNAc6P", "summary_of_the_method": "as §1"}, "Gal(b1-6)Gal": {"biological_target": "Gal(b1-6)Gal", "summary_of_the_method": "as §1"}, "Gal3S(b1-3)GalNAc": {"biological_target": "Gal3S(b1-3)GalNAc", "summary_of_the_method": "as §1"}, "Gal3S(b1-3)GlcNAc": {"biological_target": "Gal3S(b1-3)GlcNAc", "summary_of_the_method": "as §1"}, "[4]": {"biological_target": "Gal3S(b1-3)[Fuc(a1-4)]GlcNAc", "summary_of_the_method": "as §1"}, "Gal3S(b1-4)Glc": {"biological_target": "Gal3S(b1-4)Glc", "summary_of_the_method": "as §1"}, "Gal3S(b1-4)Glc6S": {"biological_target": "Gal3S(b1-4)Glc6S", "summary_of_the_method": "as §1"}, "Gal3S(b1-4)GlcNAc": {"biological_target": "Gal3S(b1-4)GlcNAc", "summary_of_the_method": "as §1"}, "Gal3S(b1-4)GlcNAc6S": {"biological_target": "Gal3S(b1-4)GlcNAc6S", "summary_of_the_method": "as §1"}, "[5]": {"biological_target": "Gal3S(b1-4)[Fuc(a1-3)]Glc6S", "summary_of_the_method": "as §1"}, "[6]": {"biological_target": "Gal3S(b1-4)[Fuc(a1-3)]GlcNAc", "summary_of_the_method": "as §1"}, "[7]": {"biological_target": "Gal3S(b1-4)[Fuc(a1-3)]GlcNAc6S", "summary_of_the_method": "as §1"}, "Gal3S4S(b1-4)GlcNAc": {"biological_target": "Gal3S4S(b1-4)GlcNAc", "summary_of_the_method": "as §1"}, "Gal3S6S(b1-4)GlcNAc": {"biological_target": "Gal3S6S(b1-4)GlcNAc", "summary_of_the_method": "as §1"}, "Gal3S6S(b1-4)GlcNAc6S": {"biological_target": "Gal3S6S(b1-4)GlcNAc6S", "summary_of_the_method": "as §1"}, "Gal4S(b1-4)GlcNAc": {"biological_target": "Gal4S(b1-4)GlcNAc", "summary_of_the_method": "as §1"}, "Gal4S6S(b1-4)GlcNAc": {"biological_target": "Gal4S6S(b1-4)GlcNAc", "summary_of_the_method": "as §1"}, "Gal6P(b1-4)GlcNAc": {"biological_target": "Gal6P(b1-4)GlcNAc", "summary_of_the_method": "as §1"}, "Gal6S(b1-3)GlcNAc": {"biological_target": "Gal6S(b1-3)GlcNAc", "summary_of_the_method": "as §1"}, "Gal6S(b1-3)GlcNAc6S": {"biological_target": "Gal6S(b1-3)GlcNAc6S", "summary_of_the_method": "as §1"}, "Gal6S(b1-4)Glc": {"biological_target": "Gal6S(b1-4)Glc", "summary_of_the_method": "as §1"}, "Gal6S(b1-4)Glc6S": {"biological_target": "Gal6S(b1-4)Glc6S", "summary_of_the_method": "as §1"}, "Gal6S(b1-4)GlcNAc": {"biological_target": "Gal6S(b1-4)GlcNAc", "summary_of_the_method": "as §1"}, "Gal6S(b1-4)GlcNAc6S": {"biological_target": "Gal6S(b1-4)GlcNAc6S", "summary_of_the_method": "as §1"}, "GalNAc(a1-3)Gal": {"biological_target": "GalNAc(a1-3)Gal", "summary_of_the_method": "as §1"}, "GalNAc(a1-3)GalNAc": {"biological_target": "GalNAc(a1-3)GalNAc", "summary_of_the_method": "as §1"}, "[8]": {"biological_target": "GalNAc(a1-3)GalNAc(a1-3)Gal(a1-4)Gal(b1-4)GlcNAc", "summary_of_the_method": "as §1"}, "[9]": {"biological_target": "GalNAc(a1-3)GalNAc(b1-3)Gal(a1-4)Gal(b1-4)Glc", "summary_of_the_method": "as §1"}, "[10]": {"biological_target": "GalNAc(a1-3)GalNAc(b1-3)Gal(a1-4)Gal(b1-4)GlcNAc", "summary_of_the_method": "as §1"}, "GalNAc(b1-3)Gal": {"biological_target": "GalNAc(b1-3)Gal", "summary_of_the_method": "as §1"}, "[11]": {"biological_target": "GalNAc(b1-3)Gal(a1-4)Gal(b1-4)GlcNAc", "summary_of_the_method": "as §1"}, "[12]": {"biological_target": "GalNAc(b1-3)Gal(a1-4)Gal(b1-4)GlcNAc(b1-3)Gal(b1-4)Glc", "summary_of_the_method": "as §1"}, "[13]": {"biological_target": "GalNAc(b1-3)Gal(a1-6)Gal(b1-4)Glc", "summary_of_the_method": "as §1"}, "GalNAc(b1-3)GalNAc": {"biological_target": "GalNAc(b1-3)GalNAc", "summary_of_the_method": "as §1"}, "GalNAc(b1-3)GlcNAc": {"biological_target": "GalNAc(b1-3)GlcNAc", "summary_of_the_method": "as §1"}, "GalNAc(b1-4)Gal(b1-4)Glc": {"biological_target": "GalNAc(b1-4)Gal(b1-4)Glc", "summary_of_the_method": "as §1"}, "GalNAc(b1-4)GlcNAc": {"biological_target": "GalNAc(b1-4)GlcNAc", "summary_of_the_method": "as §1"}, "[14]": {"biological_target": "GalNAc(b1-4)GlcNAc(b1-2)Man", "summary_of_the_method": "as §1"}, "[15]": {"biological_target": "GalNAc(b1-4)GlcNAc(b1-2)Man(a1-3)[GalNAc(b1-4)GlcNAc(b1-2)Man(a1-6)]Man(b1-4)GlcNAc(b1-4)GlcNAc", "summary_of_the_method": "as §1"}, "[16]": {"biological_target": "GalNAc(b1-4)GlcNAc(b1-3)GalNAc(b1-4)GlcNAc", "summary_of_the_method": "as §1"}, "GalNAc(b1-4)GlcNAc6S": {"biological_target": "GalNAc(b1-4)GlcNAc6S", "summary_of_the_method": "as §1"}, "GalNAc(b1-6)GalNAc": {"biological_target": "GalNAc(b1-6)GalNAc", "summary_of_the_method": "as §1"}},
  "note": "Some of the results follow.",
  "data": [
    {"binder": "B1", "values": [
      {"measurement": "glycan array binding signal (z-score)", "setting": "[1]", "value": -0.256},
      {"measurement": "glycan array binding signal (z-score)", "setting": "[2]", "value": -0.262},
      {"measurement": "glycan array binding signal (z-score)", "setting": "[3]", "value": -0.26},
      {"measurement": "glycan array binding signal (z-score)", "setting": "Gal(b1-4)GlcNAc6P", "value": -0.256},
      {"measurement": "glycan array binding signal (z-score)", "setting": "Gal(b1-6)Gal", "value": -0.268},
      {"measurement": "glycan array binding signal (z-score)", "setting": "Gal3S(b1-3)GalNAc", "value": 1.89},
      {"measurement": "glycan array binding signal (z-score)", "setting": "Gal3S(b1-3)GlcNAc", "value": -0.253},
      {"measurement": "glycan array binding signal (z-score)", "setting": "[4]", "value": -0.258},
      {"measurement": "glycan array binding signal (z-score)", "setting": "Gal3S(b1-4)Glc", "value": -0.262},
      {"measurement": "glycan array binding signal (z-score)", "setting": "Gal3S(b1-4)Glc6S", "value": -0.256},
      {"measurement": "glycan array binding signal (z-score)", "setting": "Gal3S(b1-4)GlcNAc", "value": -0.245},
      {"measurement": "glycan array binding signal (z-score)", "setting": "Gal3S(b1-4)GlcNAc6S", "value": -0.341},
      {"measurement": "glycan array binding signal (z-score)", "setting": "[5]", "value": -0.154},
      {"measurement": "glycan array binding signal (z-score)", "setting": "[6]", "value": -0.254},
      {"measurement": "glycan array binding signal (z-score)", "setting": "[7]", "value": -0.26},
      {"measurement": "glycan array binding signal (z-score)", "setting": "Gal3S4S(b1-4)GlcNAc", "value": -0.253},
      {"measurement": "glycan array binding signal (z-score)", "setting": "Gal3S6S(b1-4)GlcNAc", "value": -0.254},
      {"measurement": "glycan array binding signal (z-score)", "setting": "Gal3S6S(b1-4)GlcNAc6S", "value": -0.293},
      {"measurement": "glycan array binding signal (z-score)", "setting": "Gal4S(b1-4)GlcNAc", "value": -0.313},
      {"measurement": "glycan array binding signal (z-score)", "setting": "Gal4S6S(b1-4)GlcNAc", "value": -0.269},
      {"measurement": "glycan array binding signal (z-score)", "setting": "Gal6P(b1-4)GlcNAc", "value": -0.334},
      {"measurement": "glycan array binding signal (z-score)", "setting": "Gal6S(b1-3)GlcNAc", "value": -0.288},
      {"measurement": "glycan array binding signal (z-score)", "setting": "Gal6S(b1-3)GlcNAc6S", "value": -0.276},
      {"measurement": "glycan array binding signal (z-score)", "setting": "Gal6S(b1-4)Glc", "value": -0.258},
      {"measurement": "glycan array binding signal (z-score)", "setting": "Gal6S(b1-4)Glc6S", "value": -0.253},
      {"measurement": "glycan array binding signal (z-score)", "setting": "Gal6S(b1-4)GlcNAc", "value": -0.294},
      {"measurement": "glycan array binding signal (z-score)", "setting": "Gal6S(b1-4)GlcNAc6S", "value": -0.283},
      {"measurement": "glycan array binding signal (z-score)", "setting": "GalNAc(a1-3)Gal", "value": 0.257},
      {"measurement": "glycan array binding signal (z-score)", "setting": "GalNAc(a1-3)GalNAc", "value": -0.275},
      {"measurement": "glycan array binding signal (z-score)", "setting": "[8]", "value": -0.266},
      {"measurement": "glycan array binding signal (z-score)", "setting": "[9]", "value": -0.256},
      {"measurement": "glycan array binding signal (z-score)", "setting": "[10]", "value": -0.32},
      {"measurement": "glycan array binding signal (z-score)", "setting": "GalNAc(b1-3)Gal", "value": 0.3},
      {"measurement": "glycan array binding signal (z-score)", "setting": "[11]", "value": 0.248},
      {"measurement": "glycan array binding signal (z-score)", "setting": "[12]", "value": -0.278},
      {"measurement": "glycan array binding signal (z-score)", "setting": "[13]", "value": -0.239},
      {"measurement": "glycan array binding signal (z-score)", "setting": "GalNAc(b1-3)GalNAc", "value": 3.34},
      {"measurement": "glycan array binding signal (z-score)", "setting": "GalNAc(b1-3)GlcNAc", "value": -0.285},
      {"measurement": "glycan array binding signal (z-score)", "setting": "GalNAc(b1-4)Gal(b1-4)Glc", "value": -0.25},
      {"measurement": "glycan array binding signal (z-score)", "setting": "GalNAc(b1-4)GlcNAc", "value": -0.011},
      {"measurement": "glycan array binding signal (z-score)", "setting": "[14]", "value": -0.261},
      {"measurement": "glycan array binding signal (z-score)", "setting": "[15]", "value": -0.021},
      {"measurement": "glycan array binding signal (z-score)", "setting": "[16]", "value": -0.259},
      {"measurement": "glycan array binding signal (z-score)", "setting": "GalNAc(b1-4)GlcNAc6S", "value": -0.276},
      {"measurement": "glycan array binding signal (z-score)", "setting": "GalNAc(b1-6)GalNAc", "value": -0.285}
    ]}
  ]
}
